Laboratory results taken from the supplement of paper PMC3334620.
In all, about 33,000 sequences were measured (“E-score (-0.5 to 0.5)”: median about -0.054, highest 2% from about 0.35 on). This is one part of the list.

These sequences were tested against T1, Stb5 (UniProt P38699) (assay: PBM E-score (8-mer binding enrichment) (E-score (-0.5 to 0.5)); higher = stronger / more preferred TF binding; most listed sequences are background and not binding sites). Conditions: protein concentration: 200 nM; construct: GST-full length.
T1 sequence: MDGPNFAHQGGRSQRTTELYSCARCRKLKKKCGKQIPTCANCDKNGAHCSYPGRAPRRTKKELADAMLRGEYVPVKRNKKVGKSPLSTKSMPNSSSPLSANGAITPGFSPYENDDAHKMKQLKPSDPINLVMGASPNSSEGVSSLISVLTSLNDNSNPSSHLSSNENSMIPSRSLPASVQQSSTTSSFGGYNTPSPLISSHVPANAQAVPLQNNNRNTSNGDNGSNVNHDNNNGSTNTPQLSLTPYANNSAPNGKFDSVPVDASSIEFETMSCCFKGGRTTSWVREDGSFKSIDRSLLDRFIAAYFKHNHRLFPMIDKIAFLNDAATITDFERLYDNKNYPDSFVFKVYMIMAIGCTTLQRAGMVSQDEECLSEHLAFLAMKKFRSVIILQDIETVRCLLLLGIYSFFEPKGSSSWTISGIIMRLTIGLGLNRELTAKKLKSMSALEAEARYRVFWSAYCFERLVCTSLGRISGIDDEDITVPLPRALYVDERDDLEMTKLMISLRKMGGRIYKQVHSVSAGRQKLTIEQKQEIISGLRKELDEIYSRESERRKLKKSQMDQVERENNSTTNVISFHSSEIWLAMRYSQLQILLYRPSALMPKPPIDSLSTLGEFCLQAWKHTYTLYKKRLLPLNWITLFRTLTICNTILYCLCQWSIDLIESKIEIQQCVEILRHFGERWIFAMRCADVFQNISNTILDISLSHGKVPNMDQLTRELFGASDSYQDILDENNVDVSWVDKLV
Method in brief: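 Universal all-10-mer Agilent arrays, fresh or stripped once, were converted to double-stranded form by primer extension. GST-tagged yeast transcription factors from PURExpress in vitro transcription/translation, full-length or DNA-binding domain only, were applied at about 100-200 nM and detected with fluorescent anti-GST. After masliner normalisation, the Universal PBM Analysis Suite scored each ungapped eight-base word together with its reverse complement by E-score.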

Sequence | PBM E-score
CCAACGAG | -0.155
CTGGTCCC | -0.1
ACTTAATG | 0.0679
ATTTTTGA | -0.101
AAGTGGTA | -0.0407
AAGAAATG | -0.0985
CCTCACCA | -0.184
AGGGCTCG | -0.195
ACCGAGGG | 0.0676
CCCGGGTC | 0.352
CGGGTAAA | 0.129
AGCGCGGC | 0.189
CTACTCTA | -0.193
ATTTGGTA | -0.0383
CGATTAAA | 0.0329
GATCTGAC | 0.00731
CATGATAA | -0.0437
CGGCTCAG | 0.186
TGTAGACA | -0.124
ACGCATAG | -0.111
ATCGTGTA | -0.154
CTCGGAAC | 0.0193
CTGTTCTA | 0.00922
ACGCATCT | -0.0683
GCATGTCC | 0.0132

Sequence | PBM E-score
CAGTCGCA | -0.00139
ACCGAATC | 0.227
ACAAGCGC | 0.112
CTGCCACC | 0.0336
GGGACCAC | 0.115
AGGTACTG | -0.268
AGCCGATG | 0.132
AAATTAAC | 0.0536
ACGGAGAT | 0.403
ATTAGACA | -0.176
TTTCGAAA | -0.308
CCTCGTTC | -0.0228
TATTACGA | 0.103
ATCAAACA | -0.234
AATCCCAA | 0.0066
ATATTGAT | -0.0533
CGGGGCCA | 0.351
CACACCTA | 0.0648
ACGCATAT | -0.0932
CAATTATG | 0.161
ACTGGCAT | -0.231
ACTGTCCG | 0.144
TACAACAA | -0.0815
TGCGTACA | -0.281
CGCTGAGA | 0.0792

Sequence | PBM E-score
AACCTTAC | -0.0791
CTGTGGTA | -0.0765
GCCAGAAA | -0.167
CCATATAC | 0.0294
CAGCAGTC | -0.115
AGGGCGGC | 0.232
ACACTTCT | -0.0711
ATTGATAG | -0.0574
CTATGAAA | -0.0568
ATATAACA | 0.153
GACACCTA | 0.0139
GTTCATAA | -0.0507
AATCTACC | 0.0436
GTCTGTTA | -0.0938
CAACATAC | -0.00778
GAGTGCGA | -0.0379
CTTAAGCC | 0.181
CCCAACGC | -0.0092
ACTTCACA | -0.198
CAGAGCAG | -0.254
ACAAGAAT | -0.107
AATTGTAC | -0.0892
ACGGCCCG | 0.195
ACTCTCTC | -0.0585
ATGCGTTG | -0.0346

Sequence | PBM E-score
ACTGTTTG | -0.296
AGTATACA | -0.0104
GACTTAAA | 0.122
ACTTTGGA | -0.067
CTGGGAAC | -0.155
GCATCCAC | -0.0534
GGTTTAAC | 0.165
AAGATTCA | -0.00953
AAGACTAT | -0.206
CAGCCTAA | -0.239
AAGGGACT | -0.0514
GACACAGA | 0.151
ACGGACAC | 0.215
CTCCTCGA | -0.212
CTTCGCGC | -0.0963
CAACACGG | 0.23
CCAACTAC | -0.0654
TATTAATA | 0.261
CCATCGAG | -0.218
CCGCTCAG | 0.296
ATCGAGAC | -0.168
AGCCATAT | -0.197
ATCGTGCA | -0.108
CAGGTTCA | -0.262
CTGGACTA | -0.143

Sequence | PBM E-score
CGTGTGAA | 0.0103
GCGATCTA | -0.119
CCAAGGAG | -0.03
AAGGCAGA | -0.214
CTCTGGTC | 0.0231
GTCTCCAC | -0.178
ACGTACTC | -0.159
CCCTATAA | -0.0737
CGATCCTC | -0.1
TCCATAAA | -0.324
AGATAATC | 0.103
GATCCAGA | -0.174
CAGCGATA | 0.0123
AATGGTTA | -0.146
CCACGCCG | 0.111
AATTACCA | -0.0811
GAGACTGA | -0.156
GAATCGAC | 0.0648
CTAACCTA | 0.0543
CGCTTACA | -0.0187
GCCCATAA | 0.121
CTGTAGCC | -0.0285
TGTAGCAA | -0.0607
GCTCACCA | -0.16
AAGCTTCC | -0.208

Sequence | PBM E-score
GGGCAGGA | -0.0876
ATTATGTC | -0.0356
GCTCCCCA | -0.316
CTTGGGCA | -0.0874
ATACGTAT | 0.00623
ATCGGCGA | 0.272
AACGATTA | -0.193
ATAGATTC | -0.148
ACCCTGCA | -0.16
ATGGCACG | 0.101
CAACATGG | -0.0428
GGGACGTA | -0.0666
AAAAGTGT | -0.139
TAACCCTA | -0.172
GCGTAGCA | 0.0274
ACCGCCGT | 0.38
TAGTTTAA | 0.0196
AACTCATT | -0.0597
CATGCATG | -0.273
AGTGGCCA | -0.256
AGTACCGG | 0.367
AGAATACC | 0.0954
CTAAGTAG | -0.175
GAGGTCGC | -0.0312
CGAGACTC | -0.0906

Sequence | PBM E-score
GACCGGGC | 0.211
CCACTCCG | 0.199
CTTAGTCA | -0.126
AAGCTACG | -0.0504
GTATTGGA | -0.0794
GATTGAGA | 0.021
AAGGTTGG | -0.231
AATTAGAT | -0.13
GCATCGCA | -0.0259
GCCGAAAC | 0.213
AACGATAC | -0.295
GATAGTCC | 0.071
GCAATGCC | 0.0649
CCACGTAA | -0.154
ATATTCAA | -0.153
GGACAAGA | 0.0873
ACCGGATC | 0.198
GTCCCCCA | -0.363
CCTAAGAA | -0.251
CGAATGAG | 0.141
ATTTTACG | 0.114
CCTCTAAC | 0.00383
